Reference: PubChem BioAssay AID686979 (National Center for Advancing Translational Sciences (NCATS), 2013)
Screen size: about 420,000 compounds; about 50,000 (12%) were called active. Inconclusive means that the source gave no clear call. Such entries were picked first, then a sample of the others. Calls come from the whole dose curve; as a rule, active = well fitted inhibition curve with a large enough effect; inconclusive = small, poorly fitted or top-dose-only effect; inactive = flat fitted curve, though single readings scatter. No potency is given beside an inconclusive call; the fits are too rough.

assay: qHTS for Inhibitors of human tyrosyl-DNA phosphodiesterase 1 (TDP1): qHTS in cells in presence of CPT; settings: chicken DT40 Tdp1-/-;hTDP1 cells + 20 nM CPT, ATP luminescence, 48 h; activity change, negative = growth inhibition: at 46.2 µM (top of the series); note: nearly all actives have a fitted effect of over 55% in size
Outline: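 Chicken DT40 Tdp1-/- cells stably complemented with human TDP1 were seeded at 400 cells/well in medium containing 20 nM camptothecin, exposed to pin-transferred compounds, and grown at 37 °C for at least 48 hr. Viability was read as ATP luminescence.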
% is set by controls: 0 for no effect and ±100 for the full control effect; potency is the fitted concentration of half-maximal effect; tags give direction and shape of the fitted curve.

SMILES	Potency	activity change, negative = growth inhibition
CCC(=O)N(Cc1cc2cc(C)c(C)cc2[nH]c1=O)C1CCCCC1	inconclusive [inhibitor, partial curve, poor fit]	–
COc1ccc(N(Cc2cccs2)C(=O)c2ccc(OC)c(Cl)c2)cc1	inconclusive [inhibitor, single point]	–
CC(=O)N1CCN(c2ccc(NC(=O)c3ccc(OCc4ccccc4)cc3)cc2)CC1	inconclusive [inhibitor, single point]	–
C=CCC[C@@H](Cc1ccc(F)cc1)C(=O)OC[C@@H](Cc1c[nH]c2ccccc12)NC(=O)[C@@H](CC=C)CC(=O)N[C@@H](CO)Cc1ccccc1	active: 23.1 µM	–
Cc1[nH]n(-c2cccc(Cl)c2)c(=O)c1-c1ccc(Cl)cc1	active: 16.4 µM	–
COc1ccc2nc3c(cc2c1)c(NC(=O)CC(C)C)nn3CC(C)C	–	inactive: -11.4%
CSc1ncccc1C(=O)Nc1cccc(S(=O)(=O)N2CCCC2)c1	inconclusive [inhibitor, partial curve]	–
COc1cccc(CNc2ncc(-c3ccccc3)n2C)c1	inconclusive [inhibitor, single point]	–
O=C(NNc1c(Cl)cc(Cl)cc1Cl)c1n[nH]c(=O)c2ccccc12	–	inactive: -23.8%
Cc1cc(C)nc(SCC(=O)NNC(=O)c2cccs2)n1	inconclusive [inhibitor, full curve, poor fit]	–
Cc1ccc(Cl)cc1NC(=S)N(CCCN1CCN(C)CC1)Cc1ccco1	–	inactive: 9.57%
O=C1c2ccccc2C(c2nnnn2-c2ccc3c(c2)OCCO3)N1Cc1ccco1 (centres undefined)	inconclusive [inhibitor, single point]	–
COCCCn1c(C(=O)NC2CCCCC2C)cc2c(=O)n3cccc(C)c3nc21 (centres undefined)	active: 16.4 µM	–
O=C(Cc1cccs1)N1CCN=C1SCc1ccc(Br)cc1	inconclusive [inhibitor, single point]	–
COc1ccc(CNC(=O)Cn2cnc3c(OCc4ccccc4)ncnc32)cc1	–	inactive: -19.6%
CCCN(CCC)c1nc2c(C)cccn2c(=O)c1/C=C1/SC(=S)N(Cc2ccco2)C1=O	inconclusive [inhibitor, single point]	–
COC(=O)Oc1ccc(/C=C/C(=O)OC(C)C)cc1OC(=O)OC	inconclusive [inhibitor, partial curve]	–
Cc1ccc(C(C(=O)NC2CCCCC2)N(Cc2ccco2)C(=O)Cc2c[nH]c3ccccc23)o1 (centres undefined)	inconclusive [inhibitor, single point]	–
CC(=O)Nc1ccc(NC(=O)c2ccccc2F)cc1	inconclusive [inhibitor, single point]	–
